In the supplement of paper PMC10369915:
This is one part of the list. Rule as the data show it: active = 3.2 or more and inactive = the rest. Most of these values are background signal.

biological target: SHP2 C-SH2 domain E139D; test: enrichment score (SH2-bound / input frequency) (ratio); bacterial display of known human phosphotyrosine sites (pTyr-Var adds point mutants) read by sequencing; higher = stronger binding; tyrosines were phosphorylated by kinases first; settings: peptide library: Human pTyr
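Also: displayed peptides selected on beads carrying the immobilized SH2 domain, with library peptides lacking any tyrosine serving as negative controls.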

Enrichment score, inactive:
KVVAENAYGQFIGPH [TRXR1_HUMAN_281_YA] 0.745
FGLSRKIYSGDAARQ [TYRO3_HUMAN_681_YA] 0.836
GDSHPVLYQSLKDLL [UBE3A_HUMAN_659] 1.2
VITIEDFYSVPRTIL [UBP24_HUMAN_942] 1.14
ASSAGLIYIDPSNLR [UBR5_HUMAN_1746] 0.676
KKIYNGDYYRQGRIA [UFO_HUMAN_702] 1.75
MKTASGDYIDSSWEL [URP2_HUMAN_11] 0.622
GQRTQENYEGNEEVS [USP9Y_HUMAN_2541] 1.02
AFSRVQIYHNPTANS [VASP_HUMAN_39] 0.544
EAEGDEIYEDLMRSE [VAV1_HUMAN_174] 1.38
EDGGDDIYEDIIKVE [VAV2_HUMAN_172] 1.76
TKARWTEYGLTFTEK [VDAC1_HUMAN_67_YA] 0.937
TKAKVCNYGLTFTQK [VDAC3_HUMAN_67_YA] 1.27
DANSVVLYSTPPIGG [VGFR1_HUMAN_1333_YA] 0.505
TSGYQSGYHSDDTDT [VGFR2_HUMAN_1309] 0.816
TSGAQSGYHSDDTDT [VGFR2_HUMAN_1309_YA] 0.739
GGELKTGYLSIVMDP [VGFR2_HUMAN_801] 0.901
DIYKDPDYVRKGSAR [VGFR3_HUMAN_1068] 1.16

biological target: SHP2 C-SH2 domain wild-type; test: as above; settings: peptide library: Human pTyr

Enrichment score, inactive:
KVVAENAYGQFIGPH [TRXR1_HUMAN_281_YA] 0.699
FGLSRKIYSGDAARQ [TYRO3_HUMAN_681_YA] 0.709
GDSHPVLYQSLKDLL [UBE3A_HUMAN_659] 1.04
VITIEDFYSVPRTIL [UBP24_HUMAN_942] 0.937
ASSAGLIYIDPSNLR [UBR5_HUMAN_1746] 0.519
KKIYNGDYYRQGRIA [UFO_HUMAN_702] 1.7
MKTASGDYIDSSWEL [URP2_HUMAN_11] 0.604
GQRTQENYEGNEEVS [USP9Y_HUMAN_2541] 0.801
AFSRVQIYHNPTANS [VASP_HUMAN_39] 0.562
EAEGDEIYEDLMRSE [VAV1_HUMAN_174] 1.1
EDGGDDIYEDIIKVE [VAV2_HUMAN_172] 1.3
TKARWTEYGLTFTEK [VDAC1_HUMAN_67_YA] 1.15
TKAKVCNYGLTFTQK [VDAC3_HUMAN_67_YA] 0.875
DANSVVLYSTPPIGG [VGFR1_HUMAN_1333_YA] 0.417
TSGYQSGYHSDDTDT [VGFR2_HUMAN_1309] 0.582
TSGAQSGYHSDDTDT [VGFR2_HUMAN_1309_YA] 0.548
GGELKTGYLSIVMDP [VGFR2_HUMAN_801] 1.06
DIYKDPDYVRKGSAR [VGFR3_HUMAN_1068] 0.841

biological target: SHP2 N-SH2 domain L43F; test: as above; settings: peptide library: Human pTyr

Enrichment score, inactive:
KVVAENAYGQFIGPH [TRXR1_HUMAN_281_YA] 0.568
FGLSRKIYSGDAARQ [TYRO3_HUMAN_681_YA] 0.625
GDSHPVLYQSLKDLL [UBE3A_HUMAN_659] 1.06
VITIEDFYSVPRTIL [UBP24_HUMAN_942] 0.733
ASSAGLIYIDPSNLR [UBR5_HUMAN_1746] 0.971
KKIYNGDYYRQGRIA [UFO_HUMAN_702] 1.61
MKTASGDYIDSSWEL [URP2_HUMAN_11] 0.693
GQRTQENYEGNEEVS [USP9Y_HUMAN_2541] 1.04
AFSRVQIYHNPTANS [VASP_HUMAN_39] 0.758
EAEGDEIYEDLMRSE [VAV1_HUMAN_174] 1.13
EDGGDDIYEDIIKVE [VAV2_HUMAN_172] 2.01
TKARWTEYGLTFTEK [VDAC1_HUMAN_67_YA] 0.843
TKAKVCNYGLTFTQK [VDAC3_HUMAN_67_YA] 1.22
DANSVVLYSTPPIGG [VGFR1_HUMAN_1333_YA] 0.479
TSGYQSGYHSDDTDT [VGFR2_HUMAN_1309] 0.693
TSGAQSGYHSDDTDT [VGFR2_HUMAN_1309_YA] 0.66
GGELKTGYLSIVMDP [VGFR2_HUMAN_801] 1.04
DIYKDPDYVRKGSAR [VGFR3_HUMAN_1068] 0.983

biological target: SHP2 N-SH2 domain T42A; test: as above; settings: peptide library: Human pTyr

Enrichment score, inactive:
KVVAENAYGQFIGPH [TRXR1_HUMAN_281_YA] 0.649
FGLSRKIYSGDAARQ [TYRO3_HUMAN_681_YA] 0.587
GDSHPVLYQSLKDLL [UBE3A_HUMAN_659] 1.24
VITIEDFYSVPRTIL [UBP24_HUMAN_942] 0.919
ASSAGLIYIDPSNLR [UBR5_HUMAN_1746] 1.03
KKIYNGDYYRQGRIA [UFO_HUMAN_702] 1.61
MKTASGDYIDSSWEL [URP2_HUMAN_11] 0.576
GQRTQENYEGNEEVS [USP9Y_HUMAN_2541] 1.59
AFSRVQIYHNPTANS [VASP_HUMAN_39] 0.543
EAEGDEIYEDLMRSE [VAV1_HUMAN_174] 1.29
EDGGDDIYEDIIKVE [VAV2_HUMAN_172] 1.48
TKARWTEYGLTFTEK [VDAC1_HUMAN_67_YA] 0.997
TKAKVCNYGLTFTQK [VDAC3_HUMAN_67_YA] 1.04
DANSVVLYSTPPIGG [VGFR1_HUMAN_1333_YA] 0.406
TSGYQSGYHSDDTDT [VGFR2_HUMAN_1309] 0.826
TSGAQSGYHSDDTDT [VGFR2_HUMAN_1309_YA] 0.599
GGELKTGYLSIVMDP [VGFR2_HUMAN_801] 1.43
DIYKDPDYVRKGSAR [VGFR3_HUMAN_1068] 0.959

biological target: SHP2 N-SH2 domain T52S; test: as above; settings: peptide library: Human pTyr

Enrichment score, inactive:
KVVAENAYGQFIGPH [TRXR1_HUMAN_281_YA] 0.597
FGLSRKIYSGDAARQ [TYRO3_HUMAN_681_YA] 0.888
GDSHPVLYQSLKDLL [UBE3A_HUMAN_659] 1.06
VITIEDFYSVPRTIL [UBP24_HUMAN_942] 0.967
ASSAGLIYIDPSNLR [UBR5_HUMAN_1746] 0.884
KKIYNGDYYRQGRIA [UFO_HUMAN_702] 2.3
MKTASGDYIDSSWEL [URP2_HUMAN_11] 0.631
GQRTQENYEGNEEVS [USP9Y_HUMAN_2541] 1.54
AFSRVQIYHNPTANS [VASP_HUMAN_39] 0.65
EAEGDEIYEDLMRSE [VAV1_HUMAN_174] 1.35
EDGGDDIYEDIIKVE [VAV2_HUMAN_172] 1.65
TKARWTEYGLTFTEK [VDAC1_HUMAN_67_YA] 1.27
TKAKVCNYGLTFTQK [VDAC3_HUMAN_67_YA] 1.27
DANSVVLYSTPPIGG [VGFR1_HUMAN_1333_YA] 0.559
TSGYQSGYHSDDTDT [VGFR2_HUMAN_1309] 0.815
TSGAQSGYHSDDTDT [VGFR2_HUMAN_1309_YA] 0.669
GGELKTGYLSIVMDP [VGFR2_HUMAN_801] 0.991
DIYKDPDYVRKGSAR [VGFR3_HUMAN_1068] 0.936

biological target: SHP2 N-SH2 domain wild-type; test: as above; settings: peptide library: Human pTyr

Enrichment score, inactive:
KVVAENAYGQFIGPH [TRXR1_HUMAN_281_YA] 0.638
FGLSRKIYSGDAARQ [TYRO3_HUMAN_681_YA] 1
GDSHPVLYQSLKDLL [UBE3A_HUMAN_659] 1.29
VITIEDFYSVPRTIL [UBP24_HUMAN_942] 1.07
ASSAGLIYIDPSNLR [UBR5_HUMAN_1746] 0.551
KKIYNGDYYRQGRIA [UFO_HUMAN_702] 2.22
MKTASGDYIDSSWEL [URP2_HUMAN_11] 0.622
GQRTQENYEGNEEVS [USP9Y_HUMAN_2541] 1.39
AFSRVQIYHNPTANS [VASP_HUMAN_39] 0.583
EAEGDEIYEDLMRSE [VAV1_HUMAN_174] 1.52
EDGGDDIYEDIIKVE [VAV2_HUMAN_172] 1.45
TKARWTEYGLTFTEK [VDAC1_HUMAN_67_YA] 1.23
TKAKVCNYGLTFTQK [VDAC3_HUMAN_67_YA] 1.31
DANSVVLYSTPPIGG [VGFR1_HUMAN_1333_YA] 0.563
TSGYQSGYHSDDTDT [VGFR2_HUMAN_1309] 0.644
TSGAQSGYHSDDTDT [VGFR2_HUMAN_1309_YA] 0.809
GGELKTGYLSIVMDP [VGFR2_HUMAN_801] 1.03
DIYKDPDYVRKGSAR [VGFR3_HUMAN_1068] 0.832
